Results: PMC4336329 (PLoS ONE, 2015)
About 2,200 (0.71%) of roughly 310,000 compounds showed an effect of 50% or more. The effect is printed as a negative number. Some of the results follow.

molecular target: human ether-à-go-go-related gene (hERG) potassium channel (human, UniProt Q12809); assay: primary screen, population patch clamp on CHO cells stably expressing hERG
Sequence (Q12809 whole entry, looked up): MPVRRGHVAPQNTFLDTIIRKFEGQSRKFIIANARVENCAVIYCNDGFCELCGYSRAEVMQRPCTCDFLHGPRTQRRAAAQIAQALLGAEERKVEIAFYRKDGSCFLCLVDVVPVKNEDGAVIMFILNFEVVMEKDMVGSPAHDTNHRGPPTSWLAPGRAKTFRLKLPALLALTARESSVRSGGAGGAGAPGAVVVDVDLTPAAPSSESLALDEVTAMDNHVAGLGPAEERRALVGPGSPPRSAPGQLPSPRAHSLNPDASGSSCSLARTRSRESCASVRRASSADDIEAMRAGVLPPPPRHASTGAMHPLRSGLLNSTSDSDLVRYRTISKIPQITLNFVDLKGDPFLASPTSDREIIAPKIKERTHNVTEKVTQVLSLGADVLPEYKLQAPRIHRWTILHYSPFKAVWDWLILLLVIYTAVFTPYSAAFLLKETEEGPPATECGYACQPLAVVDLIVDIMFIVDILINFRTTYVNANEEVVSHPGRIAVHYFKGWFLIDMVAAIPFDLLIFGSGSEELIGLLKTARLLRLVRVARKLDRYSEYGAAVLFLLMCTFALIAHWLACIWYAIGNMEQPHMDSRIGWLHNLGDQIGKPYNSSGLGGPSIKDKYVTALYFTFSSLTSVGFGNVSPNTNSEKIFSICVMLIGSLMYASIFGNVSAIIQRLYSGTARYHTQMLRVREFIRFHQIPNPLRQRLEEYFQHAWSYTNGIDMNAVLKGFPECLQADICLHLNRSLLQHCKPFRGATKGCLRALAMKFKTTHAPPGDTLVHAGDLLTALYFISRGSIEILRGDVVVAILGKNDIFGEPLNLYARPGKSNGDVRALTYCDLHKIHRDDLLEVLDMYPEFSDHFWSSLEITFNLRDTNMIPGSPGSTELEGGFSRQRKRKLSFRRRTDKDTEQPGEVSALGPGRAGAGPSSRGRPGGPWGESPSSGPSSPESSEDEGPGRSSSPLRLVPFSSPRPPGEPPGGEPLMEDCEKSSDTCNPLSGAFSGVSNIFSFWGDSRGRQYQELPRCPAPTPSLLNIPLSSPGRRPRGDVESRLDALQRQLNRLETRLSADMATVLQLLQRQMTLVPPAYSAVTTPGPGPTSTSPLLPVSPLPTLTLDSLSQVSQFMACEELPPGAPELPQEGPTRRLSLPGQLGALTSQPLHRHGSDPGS

Question: Which “hERG current change (%, negative = inhibition) at 1uM” value does the source give for `Cc1nnc(SCC(=O)Nc2ccc(Cl)cn2)n1Cc1ccccc1` here?
Answer: 14.4%

Question: `CCCCOc1ccc(CSCCN)cc1Cl.Cl` was tested. Which “hERG current change (%, negative = inhibition) at 1uM” value did it give?
Answer: 8.85%

Question: Which “hERG current change (%, negative = inhibition) at 1uM” value does the source give for `Cc1cc2ncn(C(=O)c3c(-c4ccccc4Cl)noc3C)c2cc1C` here?
Answer: 9.85%

Question: Which “hERG current change (%, negative = inhibition) at 1uM” value does the source give for `CC(=O)c1sc(C(C)(C)C)cc1NC(=O)c1ccccc1C(=O)O` here?
Answer: 14.9%

Question: For `COc1cc2c3c(c1)-c1c(sn(-c4cc(OC)ccc4OC)c1=S)C(C)(C)N3C(=O)C2=O`, which “hERG current change (%, negative = inhibition) at 1uM” value is on record?
Answer: 6.02%

Question: For `O=C(NC12CC3CC(CC(C3)C1)C2)C1CCCN1C(=O)Nc1ccccc1` (stereo not drawn), which “hERG current change (%, negative = inhibition) at 1uM” value is on record?
Answer: 8.5%

Question: For `CC12CCC(C(=O)NCCCN3CCOCC3)(C(Br)C1=O)C2(C)C` (stereo not drawn), which “hERG current change (%, negative = inhibition) at 1uM” value is on record?
Answer: 12.8%

Question: With `CCN(Cc1ccccc1)S(=O)(=O)c1ccc(C(=O)N(CCCN(C)C)c2nc3cc4c(cc3s2)OCO4)cc1.Cl` as the compound, how does the “hERG current change (%, negative = inhibition) at 1uM” value read?
Answer: -2.41%

Question: Which “hERG current change (%, negative = inhibition) at 1uM” value does the source give for `Cc1ccc(S(=O)(=O)NCCCNS(C)(=O)=O)cc1` here?
Answer: 2.21%

Question: For `C=CCNc1nnc(Cc2ccc(C(C)C)cc2)c(=O)[nH]1`, which “hERG current change (%, negative = inhibition) at 1uM” value is on record?
Answer: 10.3%

Question: For `CCCCCCc1ccc(-c2ncc(N)cn2)cc1`, which “hERG current change (%, negative = inhibition) at 1uM” value is on record?
Answer: -5.95%

Question: `Cc1ccccc1-n1c(O)c(/C=N/c2nccs2)c(=O)[nH]c1=O` [24811058] was tested. Which “hERG current change (%, negative = inhibition) at 1uM” value did it give?
Answer: 13.2%

Question: Which “hERG current change (%, negative = inhibition) at 1uM” value does the source give for `Cc1cc(SCC(=O)c2cccs2)n2nc(C)c(-c3ccc(Cl)cc3)c2n1` here?
Answer: 5.64%

Question: Which “hERG current change (%, negative = inhibition) at 1uM” value does the source give for `COc1ncc(C2=CC(=O)CC(C)(C)C2)cn1` here?
Answer: -0.232%

Question: With `C[N+]1(C)CC[C@H](OC(=O)[C@@](O)(c2ccccc2)C2CCCC2)C1.[Br-]` as the compound, how does the “hERG current change (%, negative = inhibition) at 1uM” value read?
Answer: 6.96%

Question: With `Cc1cnc(C(=O)Nc2ccccc2-c2ccc(C)o2)cn1` as the compound, how does the “hERG current change (%, negative = inhibition) at 1uM” value read?
Answer: 7.54%

Question: For `CCC(C)NC(=O)C1CCN(CCCc2ccccc2)CC1.O=C(O)C(=O)O` (stereo not drawn), which “hERG current change (%, negative = inhibition) at 1uM” value is on record?
Answer: 8.5%

Question: For `COc1ccc(Cc2noc(CN(C)Cc3ccc(-n4cccn4)cc3)n2)cc1OC`, which “hERG current change (%, negative = inhibition) at 1uM” value is on record?
Answer: -0.946%

Question: `CCC1CCC/C1=N\NC(=O)c1cc(C)[nH]n1` (stereo not drawn) was tested. Which “hERG current change (%, negative = inhibition) at 1uM” value did it give?
Answer: 7.3%

Question: `CC(=O)c1cccc(NC(=O)C(C)OC(=O)Cc2c[nH]c3ccccc23)c1` (stereo not drawn) was tested. Which “hERG current change (%, negative = inhibition) at 1uM” value did it give?
Answer: 8.98%

Question: With `S=C(N/N=C/c1ccccc1)N1CCOCC1` as the compound, how does the “hERG current change (%, negative = inhibition) at 1uM” value read?
Answer: 14.7%

Question: With `O=C(Nc1ccsc1C(=O)N1CCCCCC1)c1ccccc1` as the compound, how does the “hERG current change (%, negative = inhibition) at 1uM” value read?
Answer: 2.86%

Question: For `CC(C)CNC(=S)N1CCC(NC(=O)C23CC4CC(CC(C4)C2)C3)CC1`, which “hERG current change (%, negative = inhibition) at 1uM” value is on record?
Answer: 3.51%

Question: With `COc1ccc(/C=C2\SC(=S)N(NC(=O)c3csc4c3CCCC4)C2=O)cc1` as the compound, how does the “hERG current change (%, negative = inhibition) at 1uM” value read?
Answer: 5.24%

Question: `CC(NC(=S)N1CCOCC1)c1ccccc1` (stereo not drawn) was tested. Which “hERG current change (%, negative = inhibition) at 1uM” value did it give?
Answer: 7.09%

Question: How did the “hERG current change (%, negative = inhibition) at 1uM” value turn out when `Cc1ccc(NC(=O)c2ccco2)cc1C` was run?
Answer: -8.52%

Question: For `Clc1ccccc1N=C1NN=C(c2cccs2)CS1`, which “hERG current change (%, negative = inhibition) at 1uM” value is on record?
Answer: 1.46%

Question: With `O=C(c1ccc(N2CCCC2)c([N+](=O)[O-])c1)N1CCN(CCO)CC1` as the compound, how does the “hERG current change (%, negative = inhibition) at 1uM” value read?
Answer: 7.71%

Question: With `NC(=O)c1nsc(C(=O)N(c2ccccc2)C(C(=O)NC2CCCC2)c2cccs2)c1N` (stereo not drawn) as the compound, how does the “hERG current change (%, negative = inhibition) at 1uM” value read?
Answer: 11.3%

Question: Which “hERG current change (%, negative = inhibition) at 1uM” value does the source give for `Cc1noc(C)c1Cn1nc(C(=O)O)c2ccccc2c1=O` here?
Answer: 3.2%

Question: For `O=C(O)/C=C/C(=O)NC1CC1`, which “hERG current change (%, negative = inhibition) at 1uM” value is on record?
Answer: 21.4%

Question: Which “hERG current change (%, negative = inhibition) at 1uM” value does the source give for `Cc1nc(CCNC(=O)Cc2ccc(Cl)cc2)cs1` here?
Answer: 13.9%

Question: How did the “hERG current change (%, negative = inhibition) at 1uM” value turn out when `Cc1ccc(S(=O)(=O)CCC(=O)OCc2ccc(Cl)cc2)cc1` was run?
Answer: 4.04%

Question: `CCC1C(=O)N=C(SCC(=O)Nc2ccc(S(N)(=O)=O)cc2)NC1=O` (stereo not drawn) was tested. Which “hERG current change (%, negative = inhibition) at 1uM” value did it give?
Answer: 3.61%

Question: `Cc1ccc(S(=O)(=O)Cn2nnnc2C(C(C)C)N2CCC(O)CC2)cc1` (stereo not drawn) was tested. Which “hERG current change (%, negative = inhibition) at 1uM” value did it give?
Answer: 14.5%

Question: With `C=C(C)C(=O)Nc1cccc(C2=NOC3(C2)C[C@H](C(N)=O)N(C(=O)COc2ccc(Cl)cc2)C3)c1` (stereo partly drawn) as the compound, how does the “hERG current change (%, negative = inhibition) at 1uM” value read?
Answer: 4.75%

Question: How did the “hERG current change (%, negative = inhibition) at 1uM” value turn out when `C=CCNC(=S)N/N=C/c1ccc(N(CC)Cc2ccccc2)cc1` was run?
Answer: 18.4%

Question: With `COc1ccc(NC(=O)CSc2nc3ccccc3c(=O)n2CCCN2CCOCC2)c(OC)c1` as the compound, how does the “hERG current change (%, negative = inhibition) at 1uM” value read?
Answer: 1.25%

Question: Which “hERG current change (%, negative = inhibition) at 1uM” value does the source give for `CCn1c(SCC(=O)Nc2cc(C)on2)nnc1-c1ccc(C)cc1` here?
Answer: 17.6%

Question: With `COc1ccccc1NC(=O)CC1Nc2ccccc2NC1=O` (stereo not drawn) as the compound, how does the “hERG current change (%, negative = inhibition) at 1uM” value read?
Answer: 15.8%

Question: With `Cc1cc(C)c(NC(=O)c2c[nH]c(=S)n2-c2ccc(F)cc2)c(C)c1` as the compound, how does the “hERG current change (%, negative = inhibition) at 1uM” value read?
Answer: 6.6%

Question: `Oc1ccc(C[C@H]2CNCCN2CCC23CC4CC(CC(C4)C2)C3)cc1` was tested. Which “hERG current change (%, negative = inhibition) at 1uM” value did it give?
Answer: 5.91%

Question: For `CCNC(=S)Nc1ccc(Cl)cc1Cl`, which “hERG current change (%, negative = inhibition) at 1uM” value is on record?
Answer: -4.43%

Question: How did the “hERG current change (%, negative = inhibition) at 1uM” value turn out when `O=Cc1ccc(-n2cc(C=O)c3ccccc32)cc1` was run?
Answer: 11.3%

Question: Which “hERG current change (%, negative = inhibition) at 1uM” value does the source give for `CCNc1nc(NCC)n2c(SCC(=O)Nc3ccccc3F)nnc2n1` here?
Answer: -6.99%

Question: For `CCOC(=O)c1c(C)[nH]c(C(=O)OCC(=O)c2ccc(OC)cc2OC)c1C`, which “hERG current change (%, negative = inhibition) at 1uM” value is on record?
Answer: 11.7%

Question: How did the “hERG current change (%, negative = inhibition) at 1uM” value turn out when `COc1cccc(N(CC(=O)NC2CCCCC2)C(=O)c2snc(C(N)=O)c2N)c1` was run?
Answer: 5.91%

Question: For `CCc1ccc(-c2cc(C)no2)cc1S(=O)(=O)N1CCN(c2ccc(OC)cc2)CC1`, which “hERG current change (%, negative = inhibition) at 1uM” value is on record?
Answer: 11.4%

Question: `Cn1nc(C(F)(F)F)c(C#N)c1N1CCN(c2cccc(C(F)(F)F)c2)CC1` was tested. Which “hERG current change (%, negative = inhibition) at 1uM” value did it give?
Answer: 10.9%

Question: With `CCCOc1ccc([C@@H]2C3CN(C(=O)OCC)CC=C3C(C#N)=C(N)C2(C#N)C#N)cc1OC` (stereo partly drawn) as the compound, how does the “hERG current change (%, negative = inhibition) at 1uM” value read?
Answer: 15.1%

Question: With `CCC(CC)C(=O)Nc1cc(C(=O)NCCc2ccccc2)ccc1Cl` as the compound, how does the “hERG current change (%, negative = inhibition) at 1uM” value read?
Answer: -1.1%

Question: For `CN(CC(=O)Nc1ccc(F)cc1)C(=O)c1ccc(-c2ccc(Cl)cc2)o1`, which “hERG current change (%, negative = inhibition) at 1uM” value is on record?
Answer: -9.75%

Question: For `C/C(=C\C=C\c1ccccc1)C(=O)c1c(C)cc(C)[nH]c1=O`, which “hERG current change (%, negative = inhibition) at 1uM” value is on record?
Answer: 14.1%

Question: Which “hERG current change (%, negative = inhibition) at 1uM” value does the source give for `CN(C)S(=O)(=O)c1ccc(C(=O)NCc2nnc(SCC(=O)N3CCCC3)o2)cc1` here?
Answer: 16.3%

Question: How did the “hERG current change (%, negative = inhibition) at 1uM” value turn out when `O=[n+]1cc(-c2cccc3ccccc23)n([O-])c2c1CCC2` was run?
Answer: 2.37%

Question: How did the “hERG current change (%, negative = inhibition) at 1uM” value turn out when `Cc1ccc(SC(C)C(=O)N2CCCC2)cc1` (stereo not drawn) was run?
Answer: 11.2%

Question: Which “hERG current change (%, negative = inhibition) at 1uM” value does the source give for `COc1nc(-c2ccc(C)cc2)ccc1-c1noc(-c2ccco2)n1` here?
Answer: 12.8%
